From ChEMBL document CHEMBL1201862, “PubChem BioAssay data set” (2004)
Several values for one entry are separate records, joined by “and”; a condition that tells them apart may be missing. Identical values can stand only once.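 Each compound was tested at five concentrations against cells in 96-well plates for 48 hours. Here, GI50 denotes the concentration required for 50% inhibition of growth.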 Activity calls are given as the source filed them. Cut-off read from the data, not from the text of the source: active = GI50 up to about 1.1 µM and inactive = higher.

Each compound was assayed on NCI-H322M (assay: inhibition of tumour cell growth, NCI panel, 48 h).
For `O=[N+]([O-])c1cc(-[n+]2cc([O-])on2)ccc1Cl`, the GI50 was inactive: 14.6 µM.
With `Cc1c(CCO)c(O)n2c(nc3ccccc32)c1C#N` the GI50 was inactive: > 100 µM.
With `COc1ccc2c(c1)Cc1cc(/N=[N+](\[O-])c3ccc4c(c3)Cc3cc(OC)ccc3-4)ccc1-2` the GI50 was inactive: > 100 µM.
In the case of `Cc1cc(C)nc(NS(=O)(=O)c2ccc(NC(=O)c3cccc4c(N)c5ccccc5nc34)cc2)n1`, the GI50 is reported as inactive: > 100 µM.
In the case of `O=C(c1ccccc1)c1c(C(F)(F)F)[n+]([O-])c2ccccc2[n+]1[O-]`, the GI50 is reported as inactive: 3.37 µM.
In the case of `Cc1ccc(S(=O)(=O)c2ccccc2[N+](=O)[O-])cc1`, the GI50 is reported as inactive: 72.4 µM.
In the case of `CN1C(=O)c2cccc3c([N+](=O)[O-])ccc(c23)C1=O`, the GI50 is reported as inactive: 15.6 µM.
With `COc1ccc([C@H]2C=[N+]([O-])O[C@H](OC3CCCC3)[C@@H]2OC(C)=O)cc1OC` the GI50 was inactive: 39 µM.
For `CC(Oc1ccccc1)C(=O)NN` (stereo unspecified), the GI50 was inactive: > 100 µM.
For `Cn1c(=O)c2c3ccccc3c(C(=O)c3ccccc3)n2c2ccccc21`, the GI50 was inactive: > 100 µM.
In the case of `O=[N+]([O-])c1cccc(C2=NOC(C3CCCCC3)C2)c1` (stereo unspecified), the GI50 is reported as inactive: > 100 µM.
For `C=C(Cl)C(Cl)(CBr)CCC(Br)C(C)(C)Cl` (stereo unspecified), the GI50 was inactive: 2.99 µM and inactive: 1.46 µM and inactive: 1.81 µM.
With `CCN(CC)c1nc(N(C)C)c2ccccc2n1` the GI50 was inactive: 23.9 µM.
In the case of `CCC1OCCN1C(C)C` (stereo unspecified), the GI50 is reported as inactive: > 100 µM.
`COc1ccc(/C(=N\NC(=O)C(=O)NN)C(c2ccc(OC)cc2)C2(O)C(=O)Nc3ccccc32)cc1` (stereo unspecified) was tested, and the GI50 was inactive: > 100 µM.
In the case of `COC(=O)c1c(C(=O)OC)c2ccccn2c1-c1cc(C)cc2c1C(=O)C=CC2=O`, the GI50 is reported as inactive: 13.8 µM.
For `C/C(=C\CC/C=C(\C)CC/C=C(\C)CCC1SC1(C)C)CC/C=C(\C)CCC1OC1(C)C` (stereo unspecified), the GI50 was inactive: > 100 µM.
`CC(=O)OC12C3C4C1C1C2C3C41OC(C)=O` (stereo unspecified) was tested, and the GI50 was inactive: > 100 µM.
`CCOC(=O)C1=C(Nc2ccc(Br)cc2)OCC1=O` was tested, and the GI50 was inactive: > 100 µM.
With `NC(=S)N/N=C(/C(=O)Nc1nc2ccc([N+](=O)[O-])cc2s1)C1C(=O)NC(=S)NC1=O` the GI50 was inactive: > 100 µM.
`Cc1c(/C=N/NC(=S)Nc2ccccc2Cl)c(=O)n(-c2ccccc2)n1C` was tested, and the GI50 was inactive: 32.6 µM.
`COC(=O)c1c(N)n[nH]c1N` was tested, and the GI50 was inactive: > 100 µM.
`CN(COC(=O)c1ccccc1)c1nc(N(C)COC(=O)c2ccccc2)nc(N(C)COC(=O)c2ccccc2)n1` was tested, and the GI50 was inactive: > 90.6 µM.
In the case of `CCCCCCCCCCCCCCCCCCNc1ccn(C2OC(COP(=O)(O)OCCCCCCCCCCCCCCCC)C(O)C2O)c(=O)n1` (stereo unspecified), the GI50 is reported as inactive: > 100 µM.
`O=C1C2C3CC4C5C3C1C5C1(SCCS1)C42` (stereo unspecified) was tested, and the GI50 was inactive: > 100 µM.
In the case of `O=C1C(NCCF)=C(Cl)C(=O)c2ncccc21`, the GI50 is reported as active: 1.04 µM.
`C=C(C)[C@H]1CC[C@@]2(C)C(C1)[C@H](C)CC[C@@H]2O` (stereo partly specified) was tested, and the GI50 was inactive: > 100 µM.
With `Nc1ccc2c(c1)S(=O)(=O)c1cc(O)ccc1O2` the GI50 was inactive: > 100 µM.
With `CC(=O)Nc1ncc2c(n1)-c1ccccc1OC2` the GI50 was inactive: > 100 µM.
With `O=C1NCc2ccccc2S(=O)(=O)n2cccc21` the GI50 was inactive: > 100 µM.
For `CC1CCCP(=O)(c2ccccc2)CCC1` (stereo unspecified), the GI50 was inactive: > 100 µM.
`COC(=O)C1=CSC2(S1)C(C(=O)OC)=CSc1c2ss/c1=N\c1ccccc1` (stereo unspecified) was tested, and the GI50 was inactive: 3.19 µM.
With `CCCCCCCCCCCCCC(=O)OC(/C=C/C(C)C)C(O)C(O)C(OC)C(=O)NC1CCCCNC1=O` (stereo unspecified) the GI50 was inactive: 2.61 µM.
For `Cc1nc(O)nc2nc3cc(Cl)cc(Cl)c3c(NC(C)(CO)CO)c12`, the GI50 was inactive: > 100 µM.
In the case of `CCCCCCCCCCCCCCCCOC[C@H](COC(c1ccccc1)(c1ccccc1)c1ccccc1)O[PH](=S)OC` (stereo partly specified), the GI50 is reported as inactive: > 100 µM.
For `COC(=O)c1ccc(C)cc1CC1Cc2cccc(C)c2C1=O` (stereo unspecified), the GI50 was inactive: 25 µM.
`Cc1ccc(S(=O)(=O)OC(c2ccc(Cl)cc2Cl)C2OC(=O)c3ccccc32)cc1` (stereo unspecified) was tested, and the GI50 was inactive: > 100 µM.
For `COc1cc(NCc2ccc3oc(=O)c(-c4ccccc4)nc3c2)cc(OC)c1OC`, the GI50 was inactive: > 10 µM.
In the case of `C/C(CC(O)(C(F)(F)F)C(F)(F)F)=N\NC(N)=S`, the GI50 is reported as inactive: > 10 µM.
For `CC(=O)OCc1cncn1S(=O)(=O)c1ccc(C)cc1`, the GI50 was inactive: > 100 µM.
In the case of `COc1ccc(C2CC(c3ccc4ccccc4c3O)=NN2C(C)=O)cc1OC` (stereo unspecified), the GI50 is reported as inactive: > 100 µM.
`COC(CN1C(=O)c2cccc3cccc(c23)C1=O)OC` was tested, and the GI50 was inactive: 97.3 µM.
With `O=C(Nc1sccc1S(=O)(=O)c1ccc(Cl)cc1)c1ccc(Cl)cc1Cl` the GI50 was inactive: 98.4 µM.
With `Cn1c(C(C#N)c2cc(Cl)ncn2)nc2ccccc21` (stereo unspecified) the GI50 was inactive: > 100 µM.
With `CSc1cc(-c2cc3ccccc3o2)oc(=O)c1C#N` the GI50 was inactive: > 100 µM.
`Cn1c(=O)cc(NNc2ccccc2)[nH]c1=O` was tested, and the GI50 was inactive: 50.4 µM.
`COCC(=O)CP(=O)(OC)OC` was tested, and the GI50 was inactive: > 100 µM.
With `C=CCNC1=NC(=O)C(CC(=O)Nc2ccc([N+](=O)[O-])cc2[N+](=O)[O-])S1` (stereo unspecified) the GI50 was inactive: > 100 µM.
For `CC(=O)OC12c3ccccc3C1CCCCCC21OCCCO1` (stereo unspecified), the GI50 was inactive: > 100 µM.
In the case of `CCCCCC1=CC(=O)C1(Cl)Cl`, the GI50 is reported as inactive: 12.6 µM.
With `Nc1nc(SCCC/C=C/B(O)O)nc2c1ncn2C1OC(CO)C(O)C1O` (stereo unspecified) the GI50 was inactive: > 243 µM.
For `Nc1ccc(/N=N/c2c(S(=O)(=O)O)cc3ccccc3c2S(=O)(=O)O)cc1`, the GI50 was inactive: > 100 µM.
With `NC(CCCCN/C=C1/N=C(c2ccccc2)OC1=O)C(=O)O` (stereo unspecified) the GI50 was inactive: > 100 µM.
In the case of `CCOC(=O)N1C/C(=C\c2ccccc2)C(=O)/C(=C/c2ccccc2)C1`, the GI50 is reported as inactive: 15 µM.
For `Cc1cc(C)n(-c2nc3ccccc3c(=O)n2-c2ccccc2)n1`, the GI50 was inactive: > 100 µM.
For `COc1cc(C(=O)NNC(=O)c2cc(Br)ccc2NC(=O)c2cccs2)cc(OC)c1OC`, the GI50 was inactive: 22.4 µM.
With `CCCC[Si](CCCC)(CCCC)O[C@@H](/C=C/C(=O)OCC)[C@H](Cc1ccccc1)O[Si](CCCC)(CCCC)CCCC` the GI50 was inactive: > 100 µM.
With `Cc1c(S(=O)(=O)/N=C(\NN)Nc2ccc(Cl)cc2)sc2ccc(Cl)cc12` the GI50 was inactive: 17 µM.
With `CCOC(=O)c1c2ccccc2n2c(=O)n(C)nnc12` the GI50 was inactive: > 100 µM.
`Cn1/c(=N\c2ccc(Cl)cc2)sc2ccccc21` was tested, and the GI50 was inactive: 85.1 µM.
With `COc1cc(/N=N/N(C)C)c(C(C)c2c3cc(OC)c(OC)cc3cc[n+]2C)cc1OC` (stereo unspecified) the GI50 was inactive: > 100 µM.
In the case of `N#Cc1ccc(/C=N\N2C(=O)c3ccccc3C2=O)cc1`, the GI50 is reported as inactive: > 100 µM.
With `CCOC(=O)Nc1ccc2c(c1)c(CCCCCCc1nc3ccccc3c3ccc(NC(=O)OCC)cc13)nc1ccccc12` the GI50 was inactive: 12.8 µM.
`CC1(C)CC(=O)/C(=C/C2CCNC2=S)C(=O)N1` (stereo unspecified) was tested, and the GI50 was inactive: > 100 µM.
`COC(=O)[C@H](Cc1ccccc1)NC(=O)N(CCC#N)CCN(C(=O)N[C@@H](Cc1ccccc1)C(=O)OC)c1ccccc1` was tested, and the GI50 was inactive: 20.5 µM.
For `CN1C(=O)C2C=C3CCCCC3=CC2N(C)C1=O` (stereo unspecified), the GI50 was inactive: > 100 µM.
For `Cc1nc(Nc2ccc(Cl)cc2)sc1C(=O)NNC(=S)NN`, the GI50 was inactive: 20.8 µM.
In the case of `O=CCCCC(Sc1ccccc1)Sc1ccccc1`, the GI50 is reported as inactive: > 100 µM.
`COC(=O)C1=C(O)C(C(=O)OC)[C@]2(O)[C@H](C(=O)OC)[C@H]1C[C@@H](c1ccccc1OC)[C@H]2C(=O)OC` (stereo partly specified) was tested, and the GI50 was inactive: 11.3 µM.
In the case of `N/C(=N\O)N/N=C/c1cccc(F)c1`, the GI50 is reported as inactive: 27.9 µM.
`CCOC(=O)NNC1(SC)NC(=O)c2c(cc(Cl)oc2=O)O1` (stereo unspecified) was tested, and the GI50 was inactive: 11 µM.
With `COC(=O)C(C(=O)C(=O)Nc1ccc([N+](=O)[O-])cc1)c1nc2cc(C)c(C)cc2nc1O` (stereo unspecified) the GI50 was inactive: > 100 µM.
For `C=C(C)C(=O)/N=C(\N)NC#N`, the GI50 was inactive: 179 µM.
`COC(=O)CN(CC1O[C@@H]2OC(C)(C)O[C@@H]2C1NC(C)=O)C(=O)OCc1ccccc1` (stereo partly specified) was tested, and the GI50 was inactive: > 100 µM.
In the case of `CC(C)=C1C(=O)C[C@]2(C)C[C@H]3O[C@]3(C)CC[C@@H]3O[C@@]3(C)CC[C@@H]12`, the GI50 is reported as inactive: > 50 µM.
`CCc1ccc(/C(C)=N/NC(N)=S)cc1` was tested, and the GI50 was inactive: > 100 µM.
For `O=C1C=C2C(=NC34CCCCC3C(c3ccccc3)C3=C(c5ccccc5CC3)N24)c2ccccc21` (stereo unspecified), the GI50 was inactive: > 10 µM.
In the case of `Cc1cc(C)c(C#N)c(SC(=S)NC(=O)c2ccc(Cl)cc2)n1`, the GI50 is reported as inactive: > 100 µM.
In the case of `CC1CCCOc2ccc(cc2)/C=N\c2ccc(cc2)CCc2ccc(cc2)/N=C\c2ccc(cc2)OCCC1`, the GI50 is reported as inactive: > 100 µM.
`O=C(COc1ccccc1)N(C(=O)N1CCN(c2ccccc2)CC1)S(=O)(=O)c1ccccc1` was tested, and the GI50 was inactive: > 100 µM.
`COc1ccc(/C=C2\C[C@H]3[C@@H]4CCC5=C[C@@H](N6CCCC6)CC[C@]5(C)[C@H]4CC[C@]3(C)[C@H]2O)cc1` was tested, and the GI50 was inactive: 3.21 µM.
With `OCCOCCO[P+]1(OCCOCCO)n2c3ccc2C(c2ccccc2)=C2C=CC(=N2)C(c2ccccc2)=c2ccc(n21)=C(c1ccccc1)C1=NC(=C3c2ccccc2)C=C1` the GI50 was active: 0.147 µM.
In the case of `CC12CCC(=O)[C@@]1(C)CCCC2=O` (stereo partly specified), the GI50 is reported as inactive: 81.1 µM.
For `NS(=O)(=O)c1nnc(NC(=O)Nc2ccc(Cl)c(Cl)c2)s1`, the GI50 was inactive: 19.7 µM.
With `COc1ccc(C(C)c2cc3c(cc2O)OCO3)cc1` (stereo unspecified) the GI50 was inactive: 21.4 µM.
In the case of `COc1cc2c(cc1OC)-c1[nH]c3ccc(C#N)cc3c1CC(=O)N2`, the GI50 is reported as inactive: 3.52 µM.
With `CC[S+](C)c1ccc(-c2c3nc(c(-c4ccc([S+](C)CC)cc4)c4ccc([nH]4)c(-c4ccc([S+](C)CC)cc4)c4nc(c(-c5ccc([S+](C)CC)cc5)c5ccc2[nH]5)C=C4)C=C3)cc1.[O-][Cl+3]([O-])([O-])[O-].[O-][Cl+3]([O-])([O-])[O-].[O-][Cl+3]([O-])([O-])[O-].[O-][Cl+3]([O-])([O-])[O-]` (stereo unspecified) the GI50 was inactive: 8.97 µM.
With `COc1ccc(Nc2n[nH]c(NS(=O)(=O)c3cc(C)c(Cl)cc3S)n2)cc1` the GI50 was inactive: > 100 µM.
`C=C1C(=O)O[C@H]2C(=O)[C@H](C)CCC/C(C)=C/CC[C@@]3(C)O[C@@H]3C[C@@H]12` was tested, and the GI50 was active: 0.902 µM.
For `Cn1c(=O)nc2n(-c3ccc(Cl)cc3Cl)c3ccccc3nc-2c1=O`, the GI50 was inactive: 7.33 µM.
With `COC(=O)NCCc1n[nH]c2c1C(=O)C=C(OC)C2=O` the GI50 was inactive: 51.4 µM.
